The chains are these.
B1: GBRAP_160_4505 (protein)
chain: SEKYKEAAQVAKDAAKFIEEEKDTLTPEELAVVVAGEAGKVILTADELGVLSDEELDEFDKKSRELVEKIKTGNAEEAKKAVDEAIKMFKDLAKKLEAKA
B2: GBRAP_128_3265 (protein)
chain: ANPEIVAYAEAFVEKLIAADDEEAKKLADELMERLLTLSVEEVEQFVDVIKKNLDKLSVEKLDILADAAREHRDRFSPEKANLVADLAVEALNEAEEKEE
B3: GBRAP_160_4744 (protein)
chain: SEELKKVLKEINEIFEEGIALLEEVPKEEALTVVRGTMGEVIMTVMSSDAISDELEEKIGKIMDEAEKEAEANKDGSVEEFIKILKKAREEIEKLIKKEI
B4: GBRAP_57_6465 (protein)
chain: MTPLEKAAEHFEKAIELIKAGASEEEILAEVKKGLDHLDREDLLDILLLLDPSTRSDLSKEELKAKLLELIRRLLREEGREAALKALELMLGQVEMDLIE
B5: GBRAP_9_7109 (protein)
chain: LEELIEKFKEIVEEMKEELLKVLSEELHPLVDEKVEEILETLEELKKDPNTTKEEVLKTTLELLAKMKKELEAASTPEEAAGVRTIVATAEVEIEEAYEE
B6: GBRAP_160_4421 (protein)
chain: METIKEVEEILDETTELVVELIKEGEREEAIAALRVGKGEILLLLDEDESVSEETREKVDEVLDETIEKLEENKDFTPEEVKELLEEAKKKIIEILKEGS
B7: GBRAP_125_2965 (protein)
chain: SEEEALEALAIIAKALGFDEDEVEEAVELARRFGLKKTLIALFLAEGYEEVADLVEKLTEEEAREVAKKLAEEIKKNPELTPEEVVELAKKLFEEVIAKK
B8: GBRAP_139_3710 (protein)
chain: TPPEELVEEAKKIVEENKDNIDLLAKKIAELISKADPETALKIARAAAEKLKDFSWEEWEKLIDLVSEELKKLGMEEDDVLAIEGEMEAVFAEQELKKLE
B9: GBRAP_78_6611 (protein)
chain: ETKEKILKLLEEAEELAREVRKLAPEVAEQAAELEVLLGTAIYMVDTGSESKEEILETLEEAEKAAKELKKLVEGLAEEVQKLVKEALEKIKEAIKLLKE
B10: GBRAP_160_4040 (protein)
chain: KEKYEKLEKFAKEVFEEAKKLIEGQTVEQAAVVFSVAMGQIILKAEELGIDDEELHEKIKKLEDEGVEYLLKNPELTEEEIKELIEKAEKEILKAIEEAK
B11: GBRAP_128_3229 (protein)
chain: MSPELRARVQALIDTIINGDVAETRAATRELVALMATVSDEEAEEIAEALIAAIPQLTAEKLDAVADALRENAGRLSPEKAALAYDVAIAALEQAEELEE
B12: GBRAP_125_3063 (protein)
chain: AKEAAIENLELIARALGLSEDDIAELRRLAEAGSIKNTLIAIALAEGREDLADAIEKLTEEEAEAVLAELAAELEANPELTPEEVLERLLALAEAALAAR
B13: GBRAP_78_6734 (protein)
chain: EVEEELEKAIELLDEAIKLAIGKVSNEVIAELVEALSDVIEALELLEEGGEKEEILKEIEEAIKHLEEALKLLPEEEKEIRKLVEKAKEKLEKALKEVKK
B14: GBRAP_166_4914 (protein)
chain: SMEELVEEAKERIEKLVKEMPKLDEEGKIEALIEIAEIIRELKEAGASEEEINEVIRFLAEKLKEEGLDVRHYLAIVAAAAEFDEEEMDKIDKIVEEVLK
B15: GBRAP_128_3536 (protein)
chain: SLEEVRARAAAVMDAIKAATVEEAYAIMKAFLEELKGLSLEEVEAAMDVLEERLPELTAEKLEAIADAMDEERPKLSPEKQRLVADLQVEALNLAEEKEE
B16: GBRAP_160_4636 (protein)
chain: SPAAEDLIAIVDEYTAIILEEIDAGDIDGALAALRMMVGDLVLAAEESPEFSEEDVEELDRLGREHVERFEANRDASKEELKALVEEGAEELKRLIKEKA
B17: GBRAP_137_3613 (protein)
chain: KKITITFSEEDGTAFATIKADKSVDHEKLEELVLKVAEETGAKVVIAYSDEEDELEIDLVGDRETIVKAVKLLVKRLKEELGAEVILESEGAEDLVEAVK
B18: GBRAP_128_3334 (protein)
chain: MDEERVAEIERLARAIIEADAEEARRLAEEIAERLVELSLEEVRAAVERLLELLPELSAEHLDILADVLREHLPRFEPEKANEVADLQVEALNLSVELEE
B19: GBRAP_160_4189 (protein)
chain: SEEVEKLIEEIKEIAEEAIEMIEGETYEQRLVIVEGMFGQIIMLLMSSEAVSDEAEEKVAEVADEAVEYLRENPDLTEEEIKELIKETTEKIIEIIKELS
B20: GBRAP_160_4060 (protein)
chain: SESKERLLELVDEAKEEILDVLDEEGAEAAIVMAAGEYGAVIMEAAEDEDASDELVDELAKVRDELVKELKENKDASKEELKKIIEKHAEEAKKIIKKHY
B21: GBRAP_117_2565 (protein)
chain: SAEDKEFEERVKELVEKAKELIRKRKEAPPEEQPKLEKELEELIREETRELIEKHGEEKTEEALEEALLSLDAEEYFEIELRREEAFAEIREEREREEAA
B22: GBRAP_11_2911 (protein)
chain: KKELLKKLAELLEELVEKLKELLEEGVDNEELLEEALELAEEALKLAEEALDEADVELAKELVELLKKAKEDPENAEQYVKEALATARVLLGQVLLAIEE
B23: GBRAP_26_5436 (protein)
chain: IEEVVRESIKRIEEVAKKIGDPEKAAAALAEAITLLEEFVETAEEENLSEEEMEKLAEEKVKELREFLEDLGLSEELIEELVKTFREELKKIKEELLKKR
B24: GBRAP_160_4540 (protein)
chain: SEKVEELKELIDEETEFVKSLVDEVSTEELINIFKTEFGAVIMEGEELGILTDELEEKLDEIAEKLVKWLKENPNASPEEKKKAIEKAAEEMKKAIEEEG
B25: GBRAP_26_5451 (protein)
chain: MEELLERFRERLERAADELLDPETAALLKVAVDDIIALAELELEEANGDLEKELEIVEEMLEDLEEELEDLEVPEEVREKLLEIAREEAEEIKKALKEER
B26: GBRAP_160_4349 (protein)
chain: SERVEELIKRIREAAEEVIEALDEVSVEEAAVLAAGEFGAVAMEAAEDERMSDEMVDAIIDGRDRAVAAFRAGADASREELKRRLREITEETIEELKKIA
B27: GBRAP_195_5407 (protein)
chain: MKVESAVLRVTADDTPAQIQAKIDAIVARVAAETGADLVLVVARDPSVPESVVRAAVAAAEARYPGIKITVEIFDDISLPEETLQKFAEMERLNLEEEKE
B28: GBRAP_160_4764 (protein)
chain: KEELKKLKKEIEEIFEEHIELLKEVPKEEAVTIVRGAMGEVLMLVMSSEAASDELEEKIGEIADEAEEEAKKNKDAPVEVHIEILEKAKKEILELIEKEI
B29: GBRAP_128_3500 (protein)
chain: SREEAVARTRELMARIAEASPEETRALTRELVALMASVDRETAEAMADAALERLPELSAEALDVVADTLRELRPTVDPFIARLLADIQVEALNELEEKEE

The full ranking holds about 4,500 sequences; the median of “median log2 fold change of GCK-ALFA target abundance (FLAG IP / Myc IP barcode read proportion)” is about 0.078, and the lowest 2% start at about -0.6. This is one part of the list.

Sequence of GABARAP, O95166 (O95166 whole entry, the tested form may be a part): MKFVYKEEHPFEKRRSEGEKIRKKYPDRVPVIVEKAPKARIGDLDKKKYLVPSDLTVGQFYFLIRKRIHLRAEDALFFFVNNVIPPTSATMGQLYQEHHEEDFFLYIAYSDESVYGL

The assay concerns the target GABARAP, O95166. Briefly: median log2 fold change of GCK-ALFA target abundance (FLAG IP / Myc IP barcode read proportion) (log2 ratio); each designed protein is fused to an ALFA-tag nanobody in HEK293 cells to bring the named protein to FLAG-tagged glucokinase (GCK); Myc marks an untargeted standard; higher = target protein stabilised (more abundant). The following applies: target protein: 3xFLAG-MCP-GCK-ALFA reporter; HEK293 landing pad (RPLP). The method in brief: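 Binders fused to an ALFA nanobody were recombined as a library into HEK293 landing-pad cells, which were induced with 2 μg mL^−1 doxycycline and then transfected to express a FLAG-tagged target and a Myc-tagged standard. After 48 h, circular RNA barcodes recovered by anti-FLAG and anti-Myc immunoprecipitation of lysates were reverse transcribed, amplified and sequenced. Each binder's target abundance is the median log2 ratio of FLAG to Myc barcode read proportions, from barcodes present at ≥10^−7 in both replicates, binders carrying ≥3 barcodes per replicate, a 10^−6 pseudocount and pooled replicates.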
Consider B1, for which the “median log2 fold change” value turned out to be 0.268. As to B2, the “median log2 fold change” value was determined as 0.214. For B3 the value was 0.285; for B4, 0.188; for B5, 0.423. Take B6: the “median log2 fold change” value was determined as 0.268. Turning to B7, the “median log2 fold change” value was -0.872. As for B8, the figure is -0.507; as for B9, 0.172; as for B10, -0.0275. For B11 the value was 0.114; for B12, 0.13; for B13, 0.166. As for B14, the figure is 0.253. B15: the “median log2 fold change” value was 0.228. For B16, the “median log2 fold change” value is -0.0391. As for B17, the “median log2 fold change” value was -0.43. For the molecule B18, the “median log2 fold change” value is 0.0816. Turning to B19, the “median log2 fold change” value was -0.225. For B20 the value was 0.293; for B21, 0.581. With B22, the “median log2 fold change” value is 0.062. As to B23, the “median log2 fold change” value was 0.332. As for B24, the figure is -0.0975; as for B25, -1.2; as for B26, 0.153.

For B27, the “median log2 fold change” value stood at 0.297.

Take B28: the “median log2 fold change” value was determined as 0.164. For the molecule B29, the “median log2 fold change” value was found to be 0.333.

For the origin of these results see the supplement of paper PMC12632987.
